# Measurements published in the supplement of paper PMC3334620.
# In all, about 33,000 sequences were measured (“E-score (-0.5 to 0.5)”: median about -0.012, highest 2% from about 0.27 on). The list shows a part of the results.
# Target: T1, Vhr1 (UniProt P40522)
# T1 sequence: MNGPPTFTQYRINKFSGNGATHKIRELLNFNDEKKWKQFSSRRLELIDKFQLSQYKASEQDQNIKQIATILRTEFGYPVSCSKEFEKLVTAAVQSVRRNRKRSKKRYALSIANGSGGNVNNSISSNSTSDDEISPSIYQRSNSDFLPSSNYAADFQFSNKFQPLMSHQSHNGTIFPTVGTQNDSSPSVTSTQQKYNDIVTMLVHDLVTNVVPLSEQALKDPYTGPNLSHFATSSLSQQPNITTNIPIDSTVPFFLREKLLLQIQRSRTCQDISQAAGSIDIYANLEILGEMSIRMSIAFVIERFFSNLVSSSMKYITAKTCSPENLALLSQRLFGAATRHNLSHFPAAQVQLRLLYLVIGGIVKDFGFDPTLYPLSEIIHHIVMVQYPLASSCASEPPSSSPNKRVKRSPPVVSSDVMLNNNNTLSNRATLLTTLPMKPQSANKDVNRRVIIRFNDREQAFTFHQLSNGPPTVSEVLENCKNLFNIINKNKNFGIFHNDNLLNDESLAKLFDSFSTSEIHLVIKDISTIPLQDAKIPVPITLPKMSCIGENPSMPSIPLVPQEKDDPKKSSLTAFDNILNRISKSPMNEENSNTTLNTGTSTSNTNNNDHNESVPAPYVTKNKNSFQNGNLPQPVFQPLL
# Experiment: PBM E-score (8-mer binding enrichment) (E-score (-0.5 to 0.5)); higher = stronger / more preferred TF binding; most listed sequences are background and not binding sites
# Settings: protein concentration: 200 nM; construct: GST-full length
# Summary of the method: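 Bound GST-tagged yeast transcription factors, applied at about 100-200 nM to double-stranded universal all-10-mer Agilent arrays, were detected with fluorescent anti-GST. Scans were normalised with masliner. A modified Wilcoxon-Mann-Whitney statistic, the E-score, was assigned to each ungapped eight-base word pooled with its reverse complement by the Universal PBM Analysis Suite.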
row,Sequence,PBM E-score
1,ACGATAGC,-0.174
2,AGCGACGC,-0.0461
3,ACTTTAGA,-0.184
4,ACTTCACG,-0.211
5,AACGGAGA,-0.105
6,ATATCGCG,0.18
7,CCTAGCCC,-0.18
8,AAAGATGT,-0.0237
9,GAGGAGCC,-0.112
10,CGTTGATC,-0.0879
11,CACAGGCA,0.161
12,CGCGTGAG,0.136
13,AGCGAGCT,0.0721
14,AGGTTCAC,-0.159
15,AAACTACT,-0.0389
16,GACCGGTA,-0.143
17,CAATCTAA,-0.13
18,AGTGTATA,-0.00477
19,GAGTTCGC,0.059
20,ACTCCAGG,0.0235
21,GCTAGTAA,-0.0868
22,CGCCTTAG,-0.174
23,CTCCACTC,-0.247
24,AACGCCCA,-0.0717
25,CAGAAACC,0.228

row,Sequence,PBM E-score
1,CACAGGGA,0.0855
2,CGTTCGGA,0.104
3,AGCTGTCA,-0.0511
4,AACGGCTC,-0.00563
5,ACGCGTGA,0.214
6,ACTGTGGC,-0.0773
7,CGTGCGTC,-0.00614
8,CATTCACC,0.0887
9,CAAGGCTG,-0.0822
10,GGCAGTCA,0.345
11,AACGTACA,-0.0325
12,GGTAACTA,0.12
13,CGGCCGGC,-0.05
14,CAGGAAAG,-0.207
15,CCTAAAAG,-0.258
16,AATTAGAC,-0.0756
17,ATGACTAG,0.369
18,AGGAGCGA,-0.0524
19,ATTGGTCA,0.0198
20,ATCCGGCA,0.136
21,CGACGGGA,0.0975
22,AGTAGTAA,0.0586
23,AGATATCG,0.119
24,AGGGACCG,-0.132
25,CACTGTGA,0.154

row,Sequence,PBM E-score
1,CTCTTGAA,-0.243
2,TAGTGGCA,-0.0381
3,AAAGGCAG,-0.0316
4,CAACGATC,-0.00177
5,TCAACGGA,-0.0202
6,ATCATCGA,0.17
7,TACGCAAA,-0.0838
8,ATAGAACG,-0.109
9,AGTCGAGA,0.0118
10,GCAAGAGC,-0.115
11,GAATCCCC,0.0139
12,CACATCCG,0.161
13,ACTCAGTC,0.314
14,GCCAGTCA,0.244
15,CGATGACG,-0.154
16,CCGATCTC,0.0839
17,CGGTACAG,0.11
18,AAGGACCT,-0.125
19,CGGTTAAG,-0.167
20,AGTGAATC,0.109
21,CTCTCGAC,-0.102
22,GCGATTCA,0.241
23,AGCTGATC,0.151
24,AGCATAAT,0.0173
25,GCCCTCTA,-0.119

row,Sequence,PBM E-score
1,AAAACATG,0.153
2,CAGTTACA,-0.0736
3,ACGCTCAG,-0.107
4,GCAGGGCA,-0.135
5,CCGGGTCA,0.0894
6,CACATTTA,-0.0487
7,CAGAAAGA,-0.138
8,TGAAATCA,0.069
9,GCATACTA,0.129
10,CCTACCAG,-0.126
11,CCTAGCTA,0.166
12,GAACCCCA,0.0653
13,CGACTAAC,0.303
14,ACCGATGA,0.00055
15,ATACAACC,0.0739
16,CCCATTCA,0.203
17,ACTTGAAA,-0.166
18,AGGTTGTG,-0.0501
19,ATGGCCGC,-0.206
20,CACGTAGA,-0.0788
21,CGTTTGGC,-0.0534
22,CGTTCATA,-0.112
23,CAACCTGA,0.103
24,CACGATAA,-0.0238
25,CATGCCGC,0.104

row,Sequence,PBM E-score
1,GGTCGGCA,-0.138
2,AAGAGGCT,-0.146
3,ACATCTTC,0.0278
4,GATCGCGC,0.0429
5,TCCCTAGA,-0.171
6,ATTTATCG,0.0525
7,CGAGTGCC,-0.0432
8,AACAAGGA,-0.18
9,GGAGCTCC,-0.0617
10,CCTGGGCG,0.0307
11,ACCGTTAA,-0.0322
12,GAGTTTGA,-0.077
13,ACGGAAAC,-0.141
14,ACCTGGCC,-0.00255
15,CATATACG,0.112
16,GTAGCCAC,0.0273
17,GATGATGA,0.144
18,AAGATTTG,-0.09
19,CAACGTCC,-0.169
20,AAGATTGT,-0.0511
21,ATTACTCC,0.0722
22,AGGGGAAA,-0.351
23,AACTGCGC,-0.0351
24,CCGTGACG,-0.0471
25,AATTGGCG,-0.208

row,Sequence,PBM E-score
1,CCTCGTTA,0.113
2,GCGGCTTA,0.0596
3,GTCAAATA,0.103
4,CTTATATA,0.12
5,CGCACTTC,-0.237
6,AAATTACA,-0.0342
7,GAGTAGGA,0.0112
8,CAACTAGA,-0.133
9,AAGATATC,0.144
10,CTATTTGC,-0.203
11,CTCGCATC,-0.0696
12,AGCATGAA,0.0889
13,ATGACCTC,-0.0512
14,AATGGTCT,-0.106
15,ACTCAGCG,0.133
16,GGGCAAGA,-0.072
17,CACGGCTC,-0.0633
18,GCGTACAA,-0.0377
19,ACTATGCG,0.151
20,CTTCAGAC,-0.157
21,CTATGTTA,0.122
22,CCGTTTAC,-0.084
23,CATGTACA,-0.0124
24,GATTAGAA,-0.0196
25,AACCAACT,0.0869

row,Sequence,PBM E-score
1,GTAGAGAC,-0.0289
2,AAGTGTGC,-0.064
3,CACTACCA,0.208
4,GCTGTTAC,-0.127
5,ACGCATCC,0.0371
6,CCTTTTGA,-0.147
7,CAGCGTGG,-0.0573
8,ATTTGGTC,-0.0199
9,ACATAACC,0.125
10,TCGATTAA,0.145
11,AGTGCGCC,-0.253
12,CGGCTATA,0.0118
13,AACCCCTT,-0.186
14,CTCCAAAA,-0.203
15,CAAGCACC,-0.0743
16,CTTACCTA,-0.0658
17,GACTCGAC,0.231
18,GCCGAGAA,-0.0559
19,AGTTTCTA,-0.268
20,CTTTCAGC,-0.157
21,GGTCTAAC,-0.0626
22,ACCACACG,0.0922
